# Several values for one entry are separate records, joined by “and”; a condition that tells them apart may be missing. Equal values may be shown once. Inconclusive results, whose numbers are uncertain, are shown with a selection of clear calls. For part of these data: Potencies beside an inconclusive call are fits to weak or partial responses and may not hold up. More than one record can exist for a structure, and the calls need not agree. Activity calls are given as the source filed them. Unless noted, the call rests on the fitted dose curve; in most records, active means well fitted curve in the direction sought with a large enough effect in the repeat runs; inconclusive means weak or mixed curves; inactive means no such curve, though single readings can be large; an effect the other way counts as inactive or inconclusive.
# Assays:
# [1] = qHTS assay to identify small molecule agonists of the estrogen receptor beta (ER-beta) signaling pathway - cell viability counter screen (AID 1259380); further: nearly all actives have a fitted effect of over 30% in size
# In short: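 Same-well viability counter screen. Cells: ER-beta-UAS-bla HEK293T, plated 6 hr before compound, in 2% charcoal-stripped FBS. Compound exposure 16 hr, 37C; viability by CellTiter-Glo luminescence after 30 min at room temperature.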
# [2] = biological target: Thyrotropin receptor (Homo sapiens) (UniProt P16473); assay: qHTS assay to identify small molecule antagonists of the thyroid stimulating hormone receptor (TSHR) signaling pathway (AID 1259385; calls by dose curve; further: nearly all actives have a fitted effect of over 20% in size); conditions: TSHR-HEK293 cAMP HTRF, TSH-stimulated antagonist mode; activity change, negative = inhibition: at 92.4 µM (top of the series) unless noted
# Chain of UniProt P16473 (P16473 whole entry, looked up): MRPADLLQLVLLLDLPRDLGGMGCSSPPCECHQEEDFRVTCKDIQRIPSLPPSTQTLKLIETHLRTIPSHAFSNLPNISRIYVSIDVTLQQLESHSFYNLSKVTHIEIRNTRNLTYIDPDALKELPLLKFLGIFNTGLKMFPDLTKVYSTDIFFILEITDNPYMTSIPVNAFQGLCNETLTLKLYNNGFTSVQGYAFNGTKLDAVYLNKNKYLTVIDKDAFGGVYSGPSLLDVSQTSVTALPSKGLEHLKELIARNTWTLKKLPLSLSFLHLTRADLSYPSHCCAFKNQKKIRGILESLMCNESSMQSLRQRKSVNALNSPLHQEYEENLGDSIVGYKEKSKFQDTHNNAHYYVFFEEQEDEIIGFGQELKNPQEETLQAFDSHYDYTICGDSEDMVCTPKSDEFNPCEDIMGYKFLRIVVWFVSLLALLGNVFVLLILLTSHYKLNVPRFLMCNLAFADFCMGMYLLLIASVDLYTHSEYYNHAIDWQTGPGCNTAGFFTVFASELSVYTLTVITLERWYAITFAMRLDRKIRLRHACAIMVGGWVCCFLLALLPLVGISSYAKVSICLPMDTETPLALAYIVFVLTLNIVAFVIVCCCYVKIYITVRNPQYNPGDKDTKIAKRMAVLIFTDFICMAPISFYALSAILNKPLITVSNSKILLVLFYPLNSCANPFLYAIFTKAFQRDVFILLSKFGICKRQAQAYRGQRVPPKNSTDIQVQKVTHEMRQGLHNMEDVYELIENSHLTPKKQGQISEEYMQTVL
# In short: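 TSHR-HEK293 cells (800/well) plated 18 h, then compounds with Ro20-1724 and TSH at 1.5 ng/mL final, 30 min at room temperature. cAMP quantified by HTRF (cAMP-d2/anti-cAMP-cryptate, 1 h); 15 concentrations in triplicate.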
# [3] = qHTS assay to identify small molecule agonists of the TGF-beta/Smad signaling pathway - cell viability counter screen (AID 1346829); further: nearly all actives have a fitted effect of over 45% in size
# In short: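 Luminescence from CellTiter-Glo, read after a 30 min room-temperature incubation, gives cell viability of SBE-bla HEK 293T cells treated 5 hr with compounds at 37 C.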
# [4] = qHTS assay to identify small molecule agonists of the TGF-beta/Smad signaling pathway (AID 1346859; active means well fitted activation curve with a large enough effect in the signal ratio in the repeat runs, not every such curve was filed as active; inconclusive means weak or mixed curves; the % refers to the signal ratio; on activation: on the % scale 0 is the no-effect control and ±100 the full control effect); conditions: SBE-bla HEK293T, TGF-beta/Smad beta-lactamase reporter, 5 h; activation: at 76.8 µM (top of the series)
# In short: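 SBE-bla HEK293T cells plated overnight, then compound exposure for 5 h at 37 C. Beta-lactamase reporter read with LiveBLAzer B/G FRET substrate after 2 h at room temperature, fluorescence at 405 nm excitation, 460/530 nm emission.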
# [5] = Human pregnane X receptor (PXR) small molecule agonists, qHTS cell viability counter screen (AID 1346977); further: nearly all actives have a fitted effect of over 50% in size
# In short: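 PXR-Luc HepG2 cells (2,000/well, 5% charcoal-stripped FBS) preincubated 5 hr, then exposed to compounds 24 hr at 37 C. Viability read in the same wells by CellTiter-Fluor fluorescence, reagent added at 23 hr, 1 hr incubation.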
# [6] = Caspase-3/7 induction in CHO-K1 cells by small molecules, qHTS cell viability counter screen (AID 1346979); further: nearly all actives have a fitted effect of over 35% in size
# In short: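 Wild-type CHO-K1 cells (1,500/well) treated with compound after 5 h plating; after 16 h at 37C, viability read as CellTiter-Fluor fluorescence following 1 h reagent incubation, in the same wells as the caspase read.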
# [7] = qHTS assay to identify small molecule agonists of the estrogen receptor alpha (ER-alpha) signaling pathway in the presence of an antagonist - cell viability counter screen (AID 1259386);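 further: cells exposed to compounds for 22 h at 37 °C before the viability read; nearly all actives have a fitted effect of over 30% in size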
# In short: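 Cells are starved of estrogens for 5 days in charcoal-stripped serum, seeded for 24hr and co-treated with ICI-182,780 (10.0nM final) and test compounds. After 22hr at 37C, viability is read as CellTiter-Fluor fluorescence.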
# [8] = biological target: Progesterone receptor (Homo sapiens) (UniProt P06401); assay: qHTS assay to identify small molecule agonists of the progesterone receptor (PR) signaling pathway (AID 1346784; calls by dose curve; further: nearly all actives have a fitted effect of over 30% in size); conditions: PR-UAS-bla HEK293T, beta-lactamase FRET ratio, 16 h; activation: at 92.4 µM (top of the series) unless noted
# Chain of UniProt P06401 (P06401 whole entry, looked up): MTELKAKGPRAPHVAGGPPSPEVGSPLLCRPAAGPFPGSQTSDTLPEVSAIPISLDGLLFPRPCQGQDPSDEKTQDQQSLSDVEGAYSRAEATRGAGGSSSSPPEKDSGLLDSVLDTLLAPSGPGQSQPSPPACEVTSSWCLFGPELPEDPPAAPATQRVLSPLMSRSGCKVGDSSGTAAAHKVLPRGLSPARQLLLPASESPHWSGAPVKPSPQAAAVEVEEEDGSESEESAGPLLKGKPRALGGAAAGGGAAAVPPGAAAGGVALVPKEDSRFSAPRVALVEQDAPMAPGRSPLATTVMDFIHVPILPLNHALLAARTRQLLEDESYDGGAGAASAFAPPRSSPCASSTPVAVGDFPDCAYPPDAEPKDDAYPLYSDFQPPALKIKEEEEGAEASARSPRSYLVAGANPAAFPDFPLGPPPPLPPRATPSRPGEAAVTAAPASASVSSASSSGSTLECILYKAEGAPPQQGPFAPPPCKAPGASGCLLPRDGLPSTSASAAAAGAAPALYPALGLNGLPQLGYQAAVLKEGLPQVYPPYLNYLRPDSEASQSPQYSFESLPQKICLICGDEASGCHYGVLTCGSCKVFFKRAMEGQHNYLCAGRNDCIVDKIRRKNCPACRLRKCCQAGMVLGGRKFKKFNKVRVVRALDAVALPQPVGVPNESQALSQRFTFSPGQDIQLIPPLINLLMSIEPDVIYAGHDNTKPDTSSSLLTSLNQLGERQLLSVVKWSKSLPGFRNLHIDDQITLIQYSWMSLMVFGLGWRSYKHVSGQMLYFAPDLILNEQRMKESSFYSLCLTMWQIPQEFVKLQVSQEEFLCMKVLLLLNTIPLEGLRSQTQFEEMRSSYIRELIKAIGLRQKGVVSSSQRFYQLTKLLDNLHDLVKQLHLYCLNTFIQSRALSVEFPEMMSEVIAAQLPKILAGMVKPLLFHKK
# In short: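 PR-UAS-bla HEK 293T cells (beta-lactamase reporter under UAS) in 2% charcoal-stripped FBS, dosed with 23 nL compound after 6 hr, incubated 16hr at 37C. LiveBLAzer B/G FRET substrate added, fluorescence read after 2 hours.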
# [9] = qHTS assay to identify small molecule antagonists of the progesterone receptor (PR) signaling pathway - cell viability counter screen (AID 1346798); further: nearly all actives have a fitted effect of over 50% in size
# In short: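 PR-UAS-bla HEK293T cells, 3,000/well in 2% charcoal-stripped FBS medium, dosed with compounds plus R5020 agonist and incubated 16 h at 37C. Viability then measured in the same wells by CellTiter-Glo luminescence after 30 min at RT.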
# [10] = qHTS assay to identify small molecule agonists of the progesterone receptor (PR) signaling pathway - cell viability counter screen (AID 1346799; calls by dose curve; further: nearly all actives have a fitted effect of over 45% in size)
# In short: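 Counter screen in the PR-UAS-bla HEK293T wells (2% charcoal-stripped FBS, 16 h compound exposure at 37 C) after the bla read. CellTiter-Glo added, 30 min at room temperature, luminescence read as cell viability.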
# [11] = qHTS assay to identify small molecule antagonists of the TGF-beta/Smad signaling pathway - cell viability counter screen (AID 1346824); further: nearly all actives have a fitted effect of over 50% in size
# In short: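 SBE-bla HEK 293T cells, incubated overnight, then compound plus 0.25 ng/mL TGF-beta1 (stock added) for 5 hr at 37 C. Viability was read in the same wells by CellTiter-Glo luminescence after 30 min at room temperature.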
# [12] = qHTS assay to identify small molecule antagonists of the TGF-beta/Smad signaling pathway (AID 1346924; active means well fitted inhibition curve with a large enough effect in the signal ratio in the repeat runs, not every such curve was filed as active; inconclusive means weak or mixed curves; the % refers to the signal ratio); conditions: SBE-bla HEK293T, TGF-beta/Smad reporter, beta-lactamase ratio; activity, negative = inhibition: at 76.8 µM (top of the series) unless noted
# In short: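 SBE-bla HEK 293T cells were plated overnight, then received compound in DMSO plus TGF-beta1 (added as a 0.25 ng/mL solution) and were incubated 5 h at 37 C. Beta-lactamase reporter activity was read after 2 h at room temperature with LiveBLAzer B/G FRET substrate (ex 405, em 460/530 nm).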
# [13] = biological target: Progesterone receptor (Homo sapiens) (UniProt P06401); assay: qHTS assay to identify small molecule antagonists of the progesterone receptor (PR) signaling pathway (AID 1346795; active means well fitted inhibition curve with a large enough effect in the signal ratio in the repeat runs, not every such curve was filed as active; inconclusive means weak or mixed curves; the % refers to the signal ratio; on activity change, negative = inhibition: on the % scale 0 is the no-effect control and ±100 the full control effect); conditions: PR-UAS-bla HEK293T, beta-lactamase FRET ratio, 16 h; activity change, negative = inhibition: at 92.4 µM (top of the series) unless noted
# In short: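 PR-UAS-bla HEK293T cells with beta-lactamase reporter under UAS control, in 2% charcoal-stripped FBS, treated with compounds plus 1 nM promegestone (R5020, final) for 16 hr at 37C. Read-out: FRET beta-lactamase substrate fluorescence after 2 hr at room temperature.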
# [14] = Caspase-3/7 induction in CHO-K1 cells by small molecules, qHTS assay (AID 1346980); further: nearly all actives have a fitted effect of over 15% in size
# In short: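 Wild-type CHO-K1 cells exposed to compounds for 17hr at 37 C, 5% CO2. Caspase-3/7 activity then measured by Caspase-Glo 3/7 luminescence after 30min at room temperature.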
# Potency means the concentration at half of the fitted maximal effect; tags describe the fitted curve by direction and shape or compound fluorescence and quenching.
smiles,measurement,setting,value
CCCCOC(=O)c1ccccc1C(=O)OCc1ccccc1,Potency,[1],"inconclusive: 9.67 µM [cytotoxic, full curve] and inconclusive: 34.4 µM [cytotoxic, partial curve]"
same,Potency,[2],"inconclusive: 54.5 µM [phenotype inactive, partial curve]"
same,Potency,[3],"inconclusive: 38.9 µM [cytotoxic, partial curve]"
same,Potency,[4],inactive
same,Potency,[5],active: 48.6 µM
same,Potency,[6],"inactive and inconclusive: 68.6 µM [cytotoxic, single point]"
[Cl-].[Cl-].[Hg+2],Potency,[1],active: 5.42 µM and active: 3.86 µM
same,Potency,[7],active: 54.2 µM and active: 27.3 µM
same,Potency,[8],"inconclusive: 12.1 µM [cytotoxic, full curve] and inconclusive: 3.06 µM [cytotoxic, full curve]"
same,Potency,[9],active: 4.83 µM and active: 2.43 µM
same,Potency,[10],active: 5.42 µM and active: 2.17 µM
same,Potency,[11],active: 24.4 µM and active: 54.9 µM
same,Potency,[3],active: 54.7 µM and active: 54.9 µM
same,Potency,[4],"inconclusive: 61.6 µM [falling, single point]"
same,Potency,[12],"inconclusive: 6.14 µM [rising, partial curve]"
same,Potency,[5],active: 7.08 µM and active: 6.11 µM
ClC1=C(Cl)C2(Cl)C(CBr)CC1(Cl)C2(Cl)Cl (stereo not drawn),Potency,[1],inconclusive: 77 µM [cytotoxic]
same,Potency,[13],"inconclusive: 54.5 µM [rising, partial curve]"
same,Potency,[10],active: 68.6 µM
same,Potency,[3],"inconclusive: 43.6 µM [cytotoxic, partial curve, poor fit]"
same,Potency,[5],"inconclusive: 77 µM [cytotoxic, partial curve, poor fit] and inactive"
same,Potency,[6],"inconclusive: 68.6 µM [cytotoxic, single point] and inactive"
same,Potency,[14],"inconclusive: 77 µM [activator, single point]"
Cc1cc(Cl)ccc1OCCCC(=O)O,Potency,[1],"inconclusive: 71.3 µM [cytotoxic, partial curve, poor fit] and inactive"
same,Potency,[8],"inconclusive: 60.6 µM [fluorescent, partial curve]"
same,Potency,[13],inactive
same,Potency,[10],"inconclusive: 68 µM [cytotoxic, single point]"
same,Potency,[4],"inconclusive: 12.8 µM [rising, full curve] and inconclusive: 21.7 µM [rising, full curve]"
same,Potency,[12],inconclusive: 19.3 µM [fluorescent]
same,Potency,[6],inactive
CCOC(=O)[C@]1(c2ccccc2)Oc2ccccc2[C@@H]1N,Potency,[1],"inconclusive: 2.73 µM [cytotoxic, full curve]"
same,Potency,[7],"inconclusive: 68.6 µM [cytotoxic, partial curve, poor fit]"
same,Potency,[13],inconclusive: 68.6 µM [single point]
same,Potency,[10],"inconclusive: 68.6 µM [rising, partial curve]"
same,Potency,[5],inconclusive: 61.1 µM [cytotoxic]
same,Potency,[6],"inconclusive: 77 µM [cytotoxic, single point]"
CC1(C)C(C(=O)OC(C#N)c2cccc(Oc3ccccc3)c2)C1(C)C (stereo not drawn),Potency,[1],"inconclusive: 69.1 µM [cytotoxic, single point]"
same,Potency,[7],"inconclusive: 69.1 µM [cytotoxic, partial curve, poor fit]"
same,Potency,[12],"inconclusive: 0.776 µM [rising, partial curve, poor fit]"
same,"activity, negative = inhibition",[12],inconclusive: -21.3%
same,Potency,[5],"inconclusive: 70.8 µM [cytotoxic, single point]"
same,Potency,[6],"inconclusive: 69.1 µM [cytotoxic, single point]"
CCCN(CCC)CCc1c[nH]c2ccccc12,Potency,[1],"inconclusive: 60.3 µM [cytotoxic, single point]"
same,"activity change, negative = inhibition",[13],inconclusive: -28.5%
same,Potency,[9],"inconclusive: 60.3 µM [cytotoxic, partial curve]"
same,Potency,[10],"inconclusive: 33.9 µM [cytotoxic, partial curve]"
same,"activity, negative = inhibition",[12],inconclusive: -7.53%
same,Potency,[5],"inconclusive: 67.7 µM [cytotoxic, single point]"

# — PubChem BioAssay (Tox21)
